# The list shows a part of the results. Antibody binding of pooled human sera (four to six donors per pool; dilution not stated) to peptides of the Trypanosoma cruzi antigen TSSA on microarrays. Quantile-normalised fluorescence in arbitrary units, mean of duplicate arrays; higher = more binding. No active / inactive call. The uninfected pools are read here as the healthy donors of the same country. The strongest signals lie near the top of the scale (about 60,000).
# Key:
# Assay in all cases: antibody binding signal (normalised fluorescence) (arbitrary fluorescence units); higher = stronger serum antibody binding to peptide
# [1] = system: pooled sera of chronic Chagas disease patients, Argentina
# Description: (§1)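 Microarray of overlapping 15-residue peptides of the four Trypanosoma cruzi TSSA reference variants and 8- to 13-residue peptides of TSSAII 24-62, probed with one serum pool per country.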
# [2] = system: pooled sera of chronic Chagas disease patients, Bolivia
# Description: as §1
# [3] = system: pooled sera of chronic Chagas disease patients, Brazil
# Description: as §1
# [4] = system: pooled sera of chronic Chagas disease patients, Colombia
# Description: as §1
# [5] = system: pooled sera of chronic Chagas disease patients, Mexico
# Description: as §1
# [6] = system: pooled sera of chronic Chagas disease patients, USA
# Description: as §1
# [7] = system: pooled sera of uninfected people, Argentina
# Description: as §1
# [8] = system: pooled sera of uninfected people, Bolivia
# Description: as §1
# [9] = system: pooled sera of uninfected people, Colombia
# Description: as §1
# [10] = system: pooled sera of uninfected people, Mexico
# Description: as §1
# [11] = system: pooled sera of uninfected people, USA
# Description: as §1
Sequence,antibody binding signal [1],antibody binding signal [2],antibody binding signal [3],antibody binding signal [4],antibody binding signal [5],antibody binding signal [6],antibody binding signal [7],antibody binding signal [8],antibody binding signal [9],antibody binding signal [10],antibody binding signal [11]
TGEAPSQPG,12600,27900,21700,193,119,3000,156,94.3,75.3,105,101
ANGGSTSSTPPSGTE,12900,1770,10300,1470,2630,1490,181,225,111,199,91.7
TANGGSTSST,139,189,242,118,254,193,116,164,97.4,147,93.3
GSTISTPPSGTEKKA,38800,3490,33500,334,13900,6890,1040,380,175,106,154
GEAPSQPGASSGE,8070,35800,13400,111,97.5,1350,337,91.4,79.3,125,77.4
APSQPGASSGEAE,2270,1010,9510,249,349,216,177,121,204,486,100
TANGGSTSS,160,1160,265,156,259,317,257,154,106,239,213
KPATGEAPSQP,47700,37900,48100,129,331,40900,869,851,116,196,146
TPPSGTENKPATG,47800,48400,52200,2160,5540,33700,8860,2420,991,840,948
GGSTSSTPPS,329,292,369,230,245,224,233,214,106,151,80.9
ASSGEAEAS,137,113,255,385,237,73.9,223,145,87.5,82.7,231
SGEAEASS,65,72.6,124,88,169,60.9,57.4,93.3,73.8,75.8,60.6
STPPSGTENKPATGE,46600,48300,50100,783,3420,44600,9300,1260,424,533,569
TANGGSTSSTP,511,265,905,545,323,384,228,178,135,163,218
KTAAGGTPSPSGASS,1310,166,240,8490,2810,1270,190,157,129,443,243
STSSTPPSGTENKPA,53200,53200,52200,767,9400,42800,8740,1440,915,788,990
NKPATGEA,36300,26600,29800,403,269,16300,129,561,124,441,345
STSSTPPGTDKKTAA,3750,3390,8630,16600,7200,13600,1340,206,321,2530,562
ANGGSTSST,830,2580,761,1620,1860,2200,160,307,156,346,277
TTANGGSTSSTPPSG,235,693,543,182,249,171,196,197,302,195,111
PPSGTDKKTAAGEAP,8930,9770,20000,2530,31200,4460,355,356,797,896,212
PSGASSGEAEASSNK,303,1670,3700,580,1240,2040,236,843,110,2190,1780
SGTENKPATGE,38700,29500,38300,249,582,22600,1170,1430,164,315,169
PSGTENKPAT,47300,38100,47600,2200,4590,15200,2430,1580,710,500,997
ACTTANGGSTISTPP,236,226,294,162,140,136,426,178,461,140,418
TANGGSTSSTPPGTD,255,530,414,137,235,158,118,123,123,106,95.1
PGTDKKTAAGGTPSP,36400,9710,16200,45900,45400,29900,426,172,273,491,177
ATGEAPSQPG,19100,31000,39100,829,333,14200,203,339,86.6,145,105

Sequence,antibody binding signal [1],antibody binding signal [2],antibody binding signal [3],antibody binding signal [4],antibody binding signal [5],antibody binding signal [6],antibody binding signal [7],antibody binding signal [8],antibody binding signal [9],antibody binding signal [10],antibody binding signal [11]
TGEAPSQPGASSGEA,8860,26200,17400,135,97,2250,278,107,83.1,126,78.8
EAEASSNKNDGSLSS,260,611,421,571,1300,656,158,164,133,1840,830
GEAEASSNKNDGSLS,176,1040,2110,438,718,1720,141,224,260,1710,640
TSSTPPGTDKKTAAG,3120,511,7210,16900,6100,13400,242,132,214,1650,273
AGGTPSPSGASSGEA,302,282,3780,441,746,197,182,148,186,128,289
APSQPGASSGE,2510,3140,9060,260,4980,255,101,110,130,2630,95.5
GTPSPSGASSGEAEA,163,132,4260,197,515,191,163,134,111,83.4,152
PSQPGASS,173,267,561,139,550,211,179,221,156,1490,222
PSGTENKPATG,48300,41800,46200,2610,4910,17500,2600,2740,879,726,998
SSGEAEASSNKNDGS,269,1510,2870,507,1260,1150,155,278,119,1290,679
EAPSQPGASSGE,8410,34800,8180,95.5,111,240,269,104,139,137,81.5
TANGGSTSSTPP,232,305,416,175,340,211,200,188,123,131,129
PPSGTENKPATG,51800,43100,53100,2270,6390,27500,6430,2850,914,771,1190
AAGGTPSPSGASSGE,284,273,3130,1010,2000,262,234,140,566,109,303
GEAPSQPGASS,7940,45600,9890,96.9,106,1340,206,166,115,156,141
NKPATGEAPS,45300,46900,46300,331,172,46500,912,691,168,249,136
PPSGTENKP,49800,46400,48600,312,8040,24600,4850,1020,727,395,892
PATGEAPSQPGA,42600,47200,46900,173,186,29400,758,154,228,232,185
APSQPGASSG,5820,1240,541,817,17400,574,210,344,231,5650,306
ANGGSTSSTPPGTDK,4320,2170,3060,5130,1770,9060,294,368,252,676,304
TENKPATGEAPSQPG,48300,43800,45400,367,630,41100,953,776,138,191,194
PSQPGASSG,3280,214,736,171,895,264,159,183,177,1830,236
GSTSSTPPSGTENKP,52800,49900,50300,417,8750,34700,8180,892,950,598,717
SACTTANGGSTISTP,121,194,228,109,98.2,113,417,156,351,110,92.9
GGSTISTPPSGTEKK,34300,4050,34300,190,12400,6880,797,297,179,127,154
STPPGTDKKTAAGGT,4780,2530,2820,21000,8250,28700,204,103,199,1070,181
TGEAPSQPGA,7760,29800,20200,166,105,3220,163,139,203,253,162

# Source: the supplement of paper PMC10441789
